{"source": "the supplement of paper PMC11417369", "note": "± gives the standard deviation of the averaged measurements. Some of the results follow."}
{"test_system": "PfAP2-LT AP2 domain (GST-tagged)", "experiment": "gcPBM binding intensity (ln(normalized median fluorescence intensity)); higher = stronger DNA binding", "in_short": "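GST-tagged P. falciparum DNA-binding domains, expressed in E. coli (about 25 μg on average), were applied for 1 h to an Agilent 4 × 180k array of primer-extended double-stranded 36-bp intergenic genomic probes plus negative controls. The binding buffer was 1× PBS with 1% milk, 0.2 mg/ml BSA, 0.5% salmon testes DNA and 0.03% Triton X-100. Bound protein was detected with Alexa488 anti-GST antibody and scanned at 488 nm. Binding intensity is the highest Masliner-normalised natural-log median intensity across replicate spots of either probe orientation.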"}
{"sequence": "TGCTACTTATAAATAGAACACACATAAGTGTATTTG [CACACA_site9253]", "gcPBM binding intensity (ln)": "8.79 ± 0.44"}
{"sequence": "AAGAAAAAAAAAAAAAAAAAAAAAAAAAAGGAAAAA [GTGCAC_negctrl_site174]", "gcPBM binding intensity (ln)": "8.37 ± 0.54"}
{"sequence": "AAAAAAAAAAAAAAAAAAAAAAAAAAATATATATAT [CACACA_negctrl_site271]", "gcPBM binding intensity (ln)": "8.74 ± 0.28"}
{"sequence": "TAAGAAAAAAAATAATGTACATATGTATTTGAGAAA [XGTACX_site3569]", "gcPBM binding intensity (ln)": "8.64 ± 0.5"}
{"sequence": "TATATATATATATATTGTACTAATTGTGCAAATGAG [XGTACX_site682]", "gcPBM binding intensity (ln)": "9.06 ± 0.28"}
{"sequence": "ATAAAGCCATACAATACACACATTTGACATGTCCGT [CACACA_site7523]", "gcPBM binding intensity (ln)": "9.21 ± 0.33"}
{"sequence": "GAAATTTTTAAATACAGTACACACATGGGTTTAAAT [XGTACX_site6124]", "gcPBM binding intensity (ln)": "8.88 ± 0.37"}
{"sequence": "ATACTTCAATCTATTTGTACATATTTTTTAAAACCA [XGTACX_site2328]", "gcPBM binding intensity (ln)": "8.72 ± 0.51"}
{"sequence": "AATAATAAAAAATATACACACATATATAAATAAATA [CACACA_site6164]", "gcPBM binding intensity (ln)": "9.07 ± 0.4"}
{"sequence": "ATTTAATACATACATTCACACACACTAATTGTATAT [CACACA_site9361]", "gcPBM binding intensity (ln)": "9.48 ± 0.26"}
{"sequence": "AAAAAAAAAAAAACTTGTACATGTGATATTATCTAT [XGTACX_site6169]", "gcPBM binding intensity (ln)": "8.7 ± 0.45"}
{"sequence": "TCAAAGTAGGCTTATATGCACACTTTGAAATATTAT [CACACA_site1920]", "gcPBM binding intensity (ln)": "8.7 ± 0.41"}
{"sequence": "TTAAATGTTCTATATACATGCAATGATATGTTTCTG [TGCATGCA_site317]", "gcPBM binding intensity (ln)": "8.7 ± 0.39"}
{"sequence": "TAGTTAATATGAAAAAGTACACGTTTCAGTGAAAGT [XGTACX_site7402]", "gcPBM binding intensity (ln)": "8.86 ± 0.46"}
{"sequence": "TTTAAAATAAATATTACACACAAAATATTAAAAAGC [CACACA_site2129]", "gcPBM binding intensity (ln)": "8.88 ± 0.44"}
{"sequence": "ATATATACATATGGGTGTACATATGCACATATATAT [XGTACX_site8437]", "gcPBM binding intensity (ln)": "9.06 ± 0.37"}
{"sequence": "ACAAAAAAAAACGTGGTGCATTAATAATATTGTATA [GTGCAC_site9469]", "gcPBM binding intensity (ln)": "8.86 ± 0.5"}
{"sequence": "ATAACACAAAAAGGGGGTACAATAAAAAAAAAAAAA [XGTACX_site1652]", "gcPBM binding intensity (ln)": "8.68 ± 0.54"}
{"sequence": "TATTTATATAGGTATACACACATACAAATATGTAAA [CACACA_site7705]", "gcPBM binding intensity (ln)": "8.86 ± 0.46"}
{"sequence": "AATACCTATAATACAACACACAAGTAATATAAACCT [CACACA_site7661]", "gcPBM binding intensity (ln)": "9.35 ± 0.39"}
{"sequence": "TCATTATATACAATATGTACATATATGTAATAAACA [XGTACX_site4611]", "gcPBM binding intensity (ln)": "8.71 ± 0.4"}
{"sequence": "AGCACACGCAGACACACACACACACGCACACGCACA [CACACA_site6306]", "gcPBM binding intensity (ln)": "10.3 ± 0.23"}
{"sequence": "AAAGGATATGCTTCATATATATATTGTTATATATGT [CACACA_negctrl_site1672]", "gcPBM binding intensity (ln)": "8.72 ± 0.34"}
{"sequence": "AAAGAATTCATTATTTGTACTTAAATAAATAAATAA [XGTACX_site5932]", "gcPBM binding intensity (ln)": "8.38 ± 0.38"}
{"sequence": "AGAAAGAAAGAATACACACACACATATATATATATC [CACACA_site3744]", "gcPBM binding intensity (ln)": "9.95 ± 0.3"}
{"sequence": "AAATTAATATAAATATGTACATAAATAATAAAATAT [XGTACX_site6131]", "gcPBM binding intensity (ln)": "8.84 ± 0.54"}
{"sequence": "GGAGGTTGTTATAAAAGTACAAAAAGTTGCAATTTT [XGTACX_site7351]", "gcPBM binding intensity (ln)": "8.76 ± 0.57"}
{"sequence": "ATTTTTCAAACTTTAGTGCAATGAAAGAAAGAAAAA", "gcPBM binding intensity (ln)": "8.36 ± 0.46"}
{"sequence": "AAGGAATAAAGAAGTTGTACATAATTTGTATCATCC [XGTACX_site3891]", "gcPBM binding intensity (ln)": "8.83 ± 0.48"}
{"sequence": "GTTTTCCTTCCCTTTCCCCCTCAAAAAAAGGGAACA [TGCATGCA_negctrl_site436]", "gcPBM binding intensity (ln)": "8.53 ± 0.31"}
{"sequence": "TAAAATTTTTTATTCACACAAATATAGTTATATATA [CACACA_site5348]", "gcPBM binding intensity (ln)": "8.38 ± 0.45"}
{"sequence": "ATAAGAAGGAACATAAATATATCATAAAAAAAAAAA [GTGCAC_negctrl_site169]", "gcPBM binding intensity (ln)": "8.7 ± 0.49"}
{"sequence": "TATATAATATATAAATGTACTTTTGTCTTATATGAA [XGTACX_site7211]", "gcPBM binding intensity (ln)": "8.43 ± 0.44"}
{"sequence": "TAGTAACTTGTATTCACACAAATTATATTATATTAC [CACACA_site5041]", "gcPBM binding intensity (ln)": "8.73 ± 0.4"}
{"sequence": "ATACTATAATATAAAACACACATATGTACCTTCTAA [CACACA_site7323]", "gcPBM binding intensity (ln)": "8.96 ± 0.38"}
{"sequence": "ATTATTTAAATTTAACGTACGGAATAAGACATAGAT [XGTACX_site8622]", "gcPBM binding intensity (ln)": "8.96 ± 0.45"}
{"sequence": "TTCAGGTAATAACATTGTACATGTGTATCATAATTA [XGTACX_site6740]", "gcPBM binding intensity (ln)": "8.78 ± 0.35"}
{"sequence": "AATCATTAAAGCATAATGTTTATGATCAATATGAAA [CACACA_negctrl_site887]", "gcPBM binding intensity (ln)": "8.56 ± 0.52"}
{"sequence": "TTTTTTTTTTTTTTTTTTTTACAGAAAAATATTAAA [CACACA_negctrl_site128]", "gcPBM binding intensity (ln)": "8 ± 0.33"}
{"sequence": "ATGTGTTTCTTCAATTGTACTAAAAGGTATATATTG [XGTACX_site4608]", "gcPBM binding intensity (ln)": "8.85 ± 0.35"}
{"sequence": "TTATTCTAAAAATATACACACAACAACAAACAAACA [CACACA_site1543]", "gcPBM binding intensity (ln)": "9.16 ± 0.3"}
{"sequence": "TAGATAAAATGAACATGTACTCATCTTAATATATAT [XGTACX_site34]", "gcPBM binding intensity (ln)": "8.68 ± 0.49"}
{"sequence": "CAATATGGAAAATAAAGTACGCACACAAAAATTCTC [XGTACX_site4793]", "gcPBM binding intensity (ln)": "9.31 ± 0.34"}
{"sequence": "TACACCCACATATATATACACACTTTTATTTAAATA [CACACA_site1596]", "gcPBM binding intensity (ln)": "8.94 ± 0.33"}
